The assay has as its system NCI-H322M lung. The assay is described as follows: inhibition of tumour cell growth, NCI panel, 48 h.

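These data come from cells grown in 96-well plates and exposed to compound for 48 hours at five concentrations. GI50: concentration for 50% inhibition of growth. Definition used: TGI = concentration required for complete inhibition of growth.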

In the case of `C=C(C)[C@@H]1CC[C@]2(C)[C@H](CC=C3[C@@H]4CC(C)(C)CC[C@]4(C(=O)N4CCOCC4)CC[C@]32C)[C@@]1(C)CCCN`, the GI50 was 1.45 µM and the TGI was found to be 3.11 µM.
Taken in the same sequence, the figures for `N#Cc1c(-c2ccc(Br)cc2)nc2n[nH]c(-c3ccc(Br)cc3)c2c1-c1ccc(C(F)(F)F)cc1` were 5.62 µM and 41 µM.
Taken in the same sequence, the figures for `C#C[C@]1(O)CC[C@H]2[C@@H]3CC=C4c5sc(-c6ccc(O)c(O)c6)nc5CC[C@]4(C)[C@H]3CC[C@@]21C` were 5.02 µM and 80.8 µM.
For `O=C(c1ccc(O)cc1)C1[C@H](c2ccccc2Br)[C@@H](c2ccccc2)NC12C(=O)Nc1ccccc12` (stereo partly drawn), in that order: 8.8 µM and 17.2 µM.

The record behind these values is PubChem BioAssay (NCI).
